In assay [1] the target is T1, Prp3 fused to the GAL4 DNA-binding domain (S. cerevisiae) (UniProt Q03338).
T1 sequence: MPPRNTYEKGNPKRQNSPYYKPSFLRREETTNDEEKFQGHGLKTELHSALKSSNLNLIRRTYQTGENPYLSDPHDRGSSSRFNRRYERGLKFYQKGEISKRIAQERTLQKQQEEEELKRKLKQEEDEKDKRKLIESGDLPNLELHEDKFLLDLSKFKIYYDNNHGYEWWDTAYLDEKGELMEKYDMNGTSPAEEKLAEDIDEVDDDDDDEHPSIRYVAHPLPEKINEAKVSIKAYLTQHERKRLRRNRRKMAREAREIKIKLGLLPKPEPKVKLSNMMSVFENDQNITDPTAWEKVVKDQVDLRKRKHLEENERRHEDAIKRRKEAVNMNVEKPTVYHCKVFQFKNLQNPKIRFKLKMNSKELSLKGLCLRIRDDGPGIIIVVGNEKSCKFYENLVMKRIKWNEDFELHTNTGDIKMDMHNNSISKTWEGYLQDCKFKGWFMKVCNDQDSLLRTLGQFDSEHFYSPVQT
In words: two-hybrid; Hsh155 fused to the GAL4 activation domain, Prp5 or Prp3 fused to the GAL4 DNA-binding domain (pGBKT7); strain Y2H GOLD; growth on media lacking histidine, leucine and tryptophan, 30°C, three days.

In assay [2] the target is T2, Prp5 fused to the GAL4 DNA-binding domain (S. cerevisiae) (UniProt P21372).
T2 sequence: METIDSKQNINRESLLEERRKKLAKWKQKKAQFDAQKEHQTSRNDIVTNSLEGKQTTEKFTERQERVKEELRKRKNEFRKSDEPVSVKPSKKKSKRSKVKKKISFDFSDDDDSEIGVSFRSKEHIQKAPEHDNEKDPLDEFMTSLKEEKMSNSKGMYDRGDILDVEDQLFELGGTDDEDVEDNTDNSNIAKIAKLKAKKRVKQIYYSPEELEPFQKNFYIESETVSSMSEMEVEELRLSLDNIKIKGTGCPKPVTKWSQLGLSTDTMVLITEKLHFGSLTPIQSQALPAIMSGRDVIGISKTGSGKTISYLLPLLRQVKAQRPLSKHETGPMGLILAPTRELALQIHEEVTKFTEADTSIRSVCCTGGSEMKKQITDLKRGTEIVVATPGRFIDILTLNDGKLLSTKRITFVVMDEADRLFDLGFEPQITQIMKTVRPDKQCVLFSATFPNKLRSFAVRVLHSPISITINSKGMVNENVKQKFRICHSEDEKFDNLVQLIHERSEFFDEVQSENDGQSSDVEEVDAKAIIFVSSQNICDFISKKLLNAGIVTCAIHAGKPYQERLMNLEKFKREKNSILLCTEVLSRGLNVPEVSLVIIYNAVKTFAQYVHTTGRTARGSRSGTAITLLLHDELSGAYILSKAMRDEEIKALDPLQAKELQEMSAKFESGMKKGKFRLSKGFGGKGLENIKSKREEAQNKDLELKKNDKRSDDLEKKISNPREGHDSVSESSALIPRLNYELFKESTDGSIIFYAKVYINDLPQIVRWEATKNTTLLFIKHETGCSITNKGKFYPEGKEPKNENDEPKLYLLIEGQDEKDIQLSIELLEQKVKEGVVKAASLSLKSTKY
The description is as above.

Results are given in words; binding and its absence hold for the method and conditions named. Some results given as binding are weak or reduced against the parent protein; the word gives no strength. Where a sequence is shown, tags or fusion partners need not be part of it.

B1: Hsh155 wild type fused to the GAL4 activation domain (protein, UniProt P49955 1-971)
chain: MSHPIQFVNANNSDKSHQLGGQYSIPQDLRENLQKEAARIGENEKDVLQEKMETRTVQNREDSYHKRRFDMKFEPDSDTQTVTSSENTQDAVVPRKRKSRWDVKGYEPPDESSTAVKENSDSALVNVEGIHDLMFFKPSDHKYFADVISKKPIDELNKDEKKERTLSMLLLKIKNGNTASRRTSMRILTDKAVTFGPEMIFNRLLPILLDRSLEDQERHLMIKTIDRVLYQLGDLTKPYVHKILVVAAPLLIDEDPMVRSTGQEIITNLSTVAGLKTILTVMRPDIENEDEYVRNVTSRAAAVVAKALGVNQLLPFINAACHSRKSWKARHTGIKIVQQIGILLGIGVLNHLTGLMSCIKDCLMDDHVPVRIVTAHTLSTLAENSYPYGIEVFNVVLEPLWKGIRSHRGKVLSSFLKAVGSMIPLMDPEYAGYYTTEAMRIIRREFDSPDDEMKKTILLVLQKCSAVESITPKFLREEIAPEFFQKFWVRRVALDRPLNKVVTYTTVTLAKKLGCSYTIDKLLTPLRDEAEPFRTMAVHAVTRTVNLLGTADLDERLETRLIDALLIAFQEQTNSDSIIFKGFGAVTVSLDIRMKPFLAPIVSTILNHLKHKTPLVRQHAADLCAILIPVIKNCHEFEMLNKLNIILYESLGEVYPEVLGSIINAMYCITSVMDLDKLQPPINQILPTLTPILRNKHRKVEVNTIKFVGLIGKLAPTYAPPKEWMRICFELLELLKSTNKEIRRSANATFGFIAEAIGPHDVLVALLNNLKVQERQLRVCTAVAIGIVAKVCGPYNVLPVIMNEYTTPETNVQNGVLKAMSFMFEYIGNMSKDYIYFITPLLEDALTDRDLVHRQTASNVITHLALNCSGTGHEDAFIHLMNLLIPNIFETSPHAIMRILEGLEALSQALGPGLFMNYIWAGLFHPAKNVRKAFWRVYNNMYVMYQDAMVPFYPVTPDNNEEYIEELDLVL
Consider B1, for which the binding entry in assay [1] and in assay [2] was “binds” in each case.

B2: Hsh155^E571K fused to the GAL4 activation domain (protein, UniProt P49955 1-971)
chain: MSHPIQFVNANNSDKSHQLGGQYSIPQDLRENLQKEAARIGENEKDVLQEKMETRTVQNREDSYHKRRFDMKFEPDSDTQTVTSSENTQDAVVPRKRKSRWDVKGYEPPDESSTAVKENSDSALVNVEGIHDLMFFKPSDHKYFADVISKKPIDELNKDEKKERTLSMLLLKIKNGNTASRRTSMRILTDKAVTFGPEMIFNRLLPILLDRSLEDQERHLMIKTIDRVLYQLGDLTKPYVHKILVVAAPLLIDEDPMVRSTGQEIITNLSTVAGLKTILTVMRPDIENEDEYVRNVTSRAAAVVAKALGVNQLLPFINAACHSRKSWKARHTGIKIVQQIGILLGIGVLNHLTGLMSCIKDCLMDDHVPVRIVTAHTLSTLAENSYPYGIEVFNVVLEPLWKGIRSHRGKVLSSFLKAVGSMIPLMDPEYAGYYTTEAMRIIRREFDSPDDEMKKTILLVLQKCSAVESITPKFLREEIAPEFFQKFWVRRVALDRPLNKVVTYTTVTLAKKLGCSYTIDKLLTPLRDEAEPFRTMAVHAVTRTVNLLGTADLDERLETRLIDALLIAFQKQTNSDSIIFKGFGAVTVSLDIRMKPFLAPIVSTILNHLKHKTPLVRQHAADLCAILIPVIKNCHEFEMLNKLNIILYESLGEVYPEVLGSIINAMYCITSVMDLDKLQPPINQILPTLTPILRNKHRKVEVNTIKFVGLIGKLAPTYAPPKEWMRICFELLELLKSTNKEIRRSANATFGFIAEAIGPHDVLVALLNNLKVQERQLRVCTAVAIGIVAKVCGPYNVLPVIMNEYTTPETNVQNGVLKAMSFMFEYIGNMSKDYIYFITPLLEDALTDRDLVHRQTASNVITHLALNCSGTGHEDAFIHLMNLLIPNIFETSPHAIMRILEGLEALSQALGPGLFMNYIWAGLFHPAKNVRKAFWRVYNNMYVMYQDAMVPFYPVTPDNNEEYIEELDLVL
In the case of B2, the binding result in assay [1] and in assay [2] was “binds” throughout.

B3: Hsh155^V502F fused to the GAL4 activation domain (protein, UniProt P49955 1-971)
chain: MSHPIQFVNANNSDKSHQLGGQYSIPQDLRENLQKEAARIGENEKDVLQEKMETRTVQNREDSYHKRRFDMKFEPDSDTQTVTSSENTQDAVVPRKRKSRWDVKGYEPPDESSTAVKENSDSALVNVEGIHDLMFFKPSDHKYFADVISKKPIDELNKDEKKERTLSMLLLKIKNGNTASRRTSMRILTDKAVTFGPEMIFNRLLPILLDRSLEDQERHLMIKTIDRVLYQLGDLTKPYVHKILVVAAPLLIDEDPMVRSTGQEIITNLSTVAGLKTILTVMRPDIENEDEYVRNVTSRAAAVVAKALGVNQLLPFINAACHSRKSWKARHTGIKIVQQIGILLGIGVLNHLTGLMSCIKDCLMDDHVPVRIVTAHTLSTLAENSYPYGIEVFNVVLEPLWKGIRSHRGKVLSSFLKAVGSMIPLMDPEYAGYYTTEAMRIIRREFDSPDDEMKKTILLVLQKCSAVESITPKFLREEIAPEFFQKFWVRRVALDRPLNKVFTYTTVTLAKKLGCSYTIDKLLTPLRDEAEPFRTMAVHAVTRTVNLLGTADLDERLETRLIDALLIAFQEQTNSDSIIFKGFGAVTVSLDIRMKPFLAPIVSTILNHLKHKTPLVRQHAADLCAILIPVIKNCHEFEMLNKLNIILYESLGEVYPEVLGSIINAMYCITSVMDLDKLQPPINQILPTLTPILRNKHRKVEVNTIKFVGLIGKLAPTYAPPKEWMRICFELLELLKSTNKEIRRSANATFGFIAEAIGPHDVLVALLNNLKVQERQLRVCTAVAIGIVAKVCGPYNVLPVIMNEYTTPETNVQNGVLKAMSFMFEYIGNMSKDYIYFITPLLEDALTDRDLVHRQTASNVITHLALNCSGTGHEDAFIHLMNLLIPNIFETSPHAIMRILEGLEALSQALGPGLFMNYIWAGLFHPAKNVRKAFWRVYNNMYVMYQDAMVPFYPVTPDNNEEYIEELDLVL
Consider B3, for which the binding result in assay [1] and in assay [2] was “no binding” each time.

B4: Hsh155^D563G fused to the GAL4 activation domain (protein, UniProt P49955 1-971)
chain: MSHPIQFVNANNSDKSHQLGGQYSIPQDLRENLQKEAARIGENEKDVLQEKMETRTVQNREDSYHKRRFDMKFEPDSDTQTVTSSENTQDAVVPRKRKSRWDVKGYEPPDESSTAVKENSDSALVNVEGIHDLMFFKPSDHKYFADVISKKPIDELNKDEKKERTLSMLLLKIKNGNTASRRTSMRILTDKAVTFGPEMIFNRLLPILLDRSLEDQERHLMIKTIDRVLYQLGDLTKPYVHKILVVAAPLLIDEDPMVRSTGQEIITNLSTVAGLKTILTVMRPDIENEDEYVRNVTSRAAAVVAKALGVNQLLPFINAACHSRKSWKARHTGIKIVQQIGILLGIGVLNHLTGLMSCIKDCLMDDHVPVRIVTAHTLSTLAENSYPYGIEVFNVVLEPLWKGIRSHRGKVLSSFLKAVGSMIPLMDPEYAGYYTTEAMRIIRREFDSPDDEMKKTILLVLQKCSAVESITPKFLREEIAPEFFQKFWVRRVALDRPLNKVVTYTTVTLAKKLGCSYTIDKLLTPLRDEAEPFRTMAVHAVTRTVNLLGTADLDERLETRLIGALLIAFQEQTNSDSIIFKGFGAVTVSLDIRMKPFLAPIVSTILNHLKHKTPLVRQHAADLCAILIPVIKNCHEFEMLNKLNIILYESLGEVYPEVLGSIINAMYCITSVMDLDKLQPPINQILPTLTPILRNKHRKVEVNTIKFVGLIGKLAPTYAPPKEWMRICFELLELLKSTNKEIRRSANATFGFIAEAIGPHDVLVALLNNLKVQERQLRVCTAVAIGIVAKVCGPYNVLPVIMNEYTTPETNVQNGVLKAMSFMFEYIGNMSKDYIYFITPLLEDALTDRDLVHRQTASNVITHLALNCSGTGHEDAFIHLMNLLIPNIFETSPHAIMRILEGLEALSQALGPGLFMNYIWAGLFHPAKNVRKAFWRVYNNMYVMYQDAMVPFYPVTPDNNEEYIEELDLVL
B4: the binding result in assay [1] and in assay [2] was “binds” in each case.

The values above are taken from article PMC7176370.
